Reference: PubChem BioAssay AID1963576 (National Center for Advancing Translational Sciences (NCATS), 2024)
The campaign covered roughly 46,000 compounds. About 60 (0.1%) were called active. Inconclusive results (about 3%) are left out. Calls come from the whole dose curve; as a rule, active = well fitted inhibition curve with a large enough effect; inconclusive = small, poorly fitted or top-dose-only effect; inactive = no such curve, though single readings can be large or run the other way. This is one part of the list.

assay: Primary qHTS assay for Inhibitors of ovarian cancer metastasis using an organotypic tumor microenvironment (TME) model.; note: nearly all actives have a fitted effect of over 65% in size;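 for activity change, negative = inhibition: plate controls were DMSO wells for no effect and tomatine positive control wells for full effect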; details: SKOV3ip1-GFP adhesion/invasion on 3D omental model, fluorescence; series mostly up to 45.8 µM; activity change, negative = inhibition: at the top concentration
How it was run: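 Primary human omental fibroblast/mesothelial 3D culture pre-formed 48 h. SKOV3ip1-GFP cells added with compounds (0.36-46 umol/L), incubated 2 h RT/16 h 37 C, fixed; GFP cells quantified at 488/509 nm.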

Activity change, negative = inhibition, inactive:
Cc1cccc(-n2ncc3c(N4CCN(c5ccccc5)CC4)ncnc32)c1 2.99%
CCN(CC)c1ccc(NC(=O)Cn2nc(C)n3cccc3c2=O)c(C)c1 9.55%
Cc1ccc2nc(NCc3ccc(F)cc3)c3nncn3c2c1 -6.17%
CCCCNC(=O)C1CCC(CNS(=O)(=O)c2ccc(NC(C)=O)cc2)CC1 (configuration not stated) 0.111%
COc1ccc(-c2nc3c(c(SCC(=O)N(C)c4ccccc4)n2)Cc2cc(C)ccc2O3)cc1 1.51%
COc1ccc2ncc3c(-c4ccc(C)c(C)c4)nn(CC(=O)NC4CCCC4)c3c2c1 -1.97%
CCc1ccccc1NC(=O)CCc1c(C)nn(-c2ccc(N3CCOCC3)nn2)c1C 8.2%
CCc1ccc(CNCc2c(C(=O)O)n(Cc3ccc(F)cc3Cl)c3cc(OC)ccc23)cc1 15.6%
COc1ccc2[nH]cc(S(=O)(=O)c3ccc(C)c(C)c3)c(=O)c2c1 1.88%
O=C(CCCCn1c(=O)c2ccccc2n(CC(=O)Nc2cccc(F)c2)c1=O)NCCc1ccccc1 34.8%
COc1ccc(-c2nn(-c3cccc(F)c3)c3c2cnc2cc(OC)c(OC)cc23)cc1 -8.79%
COc1ccc2oc(=O)c(-c3nc(-c4cccs4)no3)cc2c1 -0.543%
Cc1ccc(NC(=O)Cn2nnc(C(=O)NCc3ccc4c(c3)OCO4)c2N)cc1Cl -1.23%
O=C(NC1CC(=O)N(c2ccc(F)cc2)C1)C1CC1 (configuration not stated) -0.421%
CCc1ccc(NC(=O)Cn2cc(S(=O)(=O)N3CCCC3)c(S(=O)(=O)N3CCCC3)c2)cc1 7.48%
Cc1cc(C)cc(NC(=O)CCCc2nc(-c3ccccc3Cl)no2)c1 9%
CCOCC(O)COc1ccc(NC(=O)CC[S+](C)C)cc1 (configuration not stated) -13.6%
CCOC(=O)c1cc2c(=O)n3ccccc3nc2n(Cc2ccco2)c1=NC(=O)c1ccc(OCC)cc1 4.56%
Cn1c(=O)n(CCCc2ccccc2)c(=O)c2c1nc1n2CCN1c1ccc(F)cc1 -0.543%
Cc1nn(C(=O)c2ccc(Br)cc2)c(C)c1Sc1ccccc1 -6.01%
COc1cc(OC)c(N(C)C(=O)c2sc3nc4n(c(=O)c3c2C)CCCC4)cc1Cl -17%
COc1ccc(CN2COc3ccc4c(-c5ccccc5)cc(=O)oc4c3C2)cc1OC -7.71%
CCN(c1cccc(C)c1)c1ncnc2c1cnn2-c1cccc(Cl)c1 -20%
CCCCOC(=O)c1ccc(NC(=O)c2cnc3ccc(C)cn3c2=O)cc1 1.35%
Cc1ccc(NC(=O)Cn2c(=O)n(Cc3nc(-c4ccccc4)no3)c(=O)c3cc4c(cc32)OCO4)c(C)c1 9.01%
Cc1ccc(NC(=O)C2=CC(c3ccc4c(c3)OCO4)=NS(=O)(=O)N2C)cc1 -1.06%
COc1ccc(Nc2c(-c3ccccn3)nc3ccc(Cl)cn23)cc1 0.238%
COc1cccc(Nc2nc3ccc(C)cc3nc2-n2nc(C)cc2C)c1 4.87%
COc1ccc(CCNC(=O)CSc2n[nH]c(-c3ccccc3Cl)n2)cc1OC 11.3%
COc1ccc(Cl)cc1NC(=O)CSC1=Nc2ccccc2C2=NC(CC(=O)NCc3cccs3)C(=O)N12 (configuration not stated) 5.37%
O=C(CSc1cn(CC(=O)N2CCCCC2)c2ccccc12)Nc1ccc(C(F)(F)F)cc1 9.18%
COc1cccc(N2CCN(S(=O)(=O)c3ccc(-c4ccno4)cc3OC)CC2)c1 4.94%
COc1ccc(OC)c(C2NC(=O)NC(C)=C2C(=O)Nc2ccc(F)cc2)c1 (configuration not stated) 8.04%
Cc1ccc(C(c2sc3nc(-c4ccco4)nn3c2O)N2CCC3(CC2)OCCO3)cc1 (configuration not stated) -2.41%
CCN(CC)CCNC(=O)c1sc2ncccc2c1-n1cccc1 0.555%
Cc1ccc(C(=O)NCc2ccc(F)cc2)cc1NC(=O)c1nsc2ccccc12 -5.86%
COc1ccc(NC(=O)c2ccco2)cc1NC(=O)COc1ccc(Cl)cc1C -10.6%
COc1cccc(N2CCN(C(=O)c3ccc(NC(=O)c4nsc5ccccc45)cc3)CC2)c1 -3.19%
CN1CCN(CCOc2cc(OC3CCOCC3)c3c(Nc4c(Cl)ccc5c4OCO5)ncnc3c2)CC1 1.87%
COc1ccc(CNC(=O)CCc2nc(-c3ccc(C)cc3)no2)c(OC)c1 -19.8%
Cn1c(=O)n(C)c2cc(N3CCCCC3)c(NC(=O)c3ccc(C(C)(C)C)cc3)cc21 2.69%
Cn1cc(S(=O)(=O)c2ccccc2)c(=O)c2cc(F)c(N3CCCCCC3)cc21 -8.33%
Cc1ccc(NC(=O)c2ccc(NC(=O)N3CCSc4ncccc43)cc2)c(C)c1 0.76%
COc1cc(C(=O)Nc2nonc2-c2ccc(C)c(C)c2)cc(OC)c1OC 0.305%
COc1ccc(C)cc1-n1cnc2cc(C(=O)NC3CCCC3)ccc21 -4.04%
COc1ccccc1NC(=O)Cn1c(=O)n(CCCCCC(=O)NCc2ccccc2)c(=O)c2sccc21 3.5%
CCOC(=O)c1c(C)oc2nc(C)nc(NCc3ccccc3OC)c12 4.18%
O=C(CSc1nc2c([nH]c3ccccc32)c(=O)n1-c1ccc(Cl)cc1)NCC1CCCO1 (configuration not stated) 29%
CCOc1ccc(/C=C/c2nc(C#N)c(NCCc3ccccc3)o2)cc1 -4.61%
Cc1cc(C(=O)Nc2c(C)nc3ccccn3c2=O)ccc1[N+](=O)[O-] 0.837%
O=C(NCC1CN(c2ccc(N3CCOCC3=O)cc2)C(=O)O1)c1ccc(Cl)s1 (configuration not stated) -13.5%
CC1Cc2cc(S(=O)(=O)N(Cc3ccccc3)C(C)C)ccc2N1C(=O)C1CCC1 (configuration not stated) -6.66%
Cc1ccccc1Nc1c(-c2cccs2)nc2cccc(C)n12 0.0995%
CCOc1cc(CNC(=O)Cn2c(-c3cccs3)cc3cc(F)ccc32)ccc1OC -3.31%
CC(=O)Nc1ccc(S(=O)(=O)NC2(C(F)(F)F)NC(=O)N(CCc3ccc(F)cc3)C2=O)cc1 (configuration not stated) 9.43%
COc1cccc(C(=O)Nc2ccccc2-c2nnc(-c3cccc(OC)c3)o2)c1 0.119%
O=C(Nc1cccc(F)c1)c1ccc(-c2ccccc2)s1 14.8%
CCCN(CCC)CCCNC(=O)Cn1cnc2sc(C)c(S(=O)(=O)N3CCC(C)CC3)c2c1=O -2.21%
CCN(C)C(=O)Oc1cccc([C@H](C)N(C)C)c1 -28.6%
O=C(c1cccs1)N1CCCc2cc(NS(=O)(=O)c3ccc(F)cc3F)ccc21 1.31%
COC(=O)C1CCN(S(=O)(=O)c2cc3c4c(c2)CC(=O)N4CCC3)CC1 0.529%
CCOCCCn1c(=N)c(C(=O)NCC2CCCO2)cc2c(=O)n3cccc(C)c3nc21 (configuration not stated) -1.77%
Cc1ccc(C)c(NC(=O)Cn2c(=O)n(Cc3ccccc3)c(=O)c3oc4ccccc4c32)c1 10.8%
Nc1ccc(S(=O)(=O)Nc2ccnn2-c2ccccc2)cc1 -7.05%
COc1ccc(Br)cc1CNC(=O)c1ccc2c(c1)N(Cc1ccc(C)cc1)CCS2 -0.83%
COc1ccc2c(c1)NC(c1cccnc1)=NC(c1ccc(F)cc1)=N2 -2.87%
Cc1ccc(S(=O)(=O)c2cn(Cc3ccccc3Cl)c3ccc(F)cc3c2=O)cc1 -1.09%
C[C@@H](N)c1ccc(C(=O)Nc2ccnc3[nH]ccc23)cc1 -11.1%
CCCN1CCc2nc(N3CCN(c4ncccn4)CC3)ncc2C1 -3%
Cc1cccc(OCCCn2c(CCNC(=O)C(C)(C)C)nc3ccccc32)c1 -4.71%
Cc1ccc(C)c(CN2C(=O)c3ccccc3S(=O)(=O)c3ccc(C(=O)NCc4ccccc4)cc32)c1 -4.33%

outcome, inactive:
Cc1nc(-c2ccc(S(=O)(=O)NCc3ccc(N(C)C)cc3)cc2)co1
CCc1nn2c(=O)cc(COC(=O)c3ccccc3NC(=O)C3CCCCC3)nc2s1
COc1cc2ccccc2cc1C(=O)N1CCN(c2nc3ccc(F)cc3s2)CC1
O=C(c1ccc(F)cc1)n1nc(-c2ccccc2)nc1NCc1ccc(F)cc1
COc1ccccc1-c1noc(-c2ccc(NC(C)C)c([N+](=O)[O-])c2)n1
COc1ccc(Cn2c(=O)[nH]c3cc(C(=O)N4CCN(c5cc(Cl)ccc5C)CC4)ccc3c2=O)cc1
CC(C)NC(=O)CCN1C(=O)c2ccccc2Sc2ncccc21
CSc1nc2sc3c(c2c(=O)n1-c1ccccc1)CCC(C(C)(C)C)C3 (configuration not stated)
O=C(c1cc(-c2ccc(O)cc2)on1)N1CCN(c2ccccc2)CC1
CCn1c(=O)cc(OCC(=O)N2CCN(c3ccc(F)cc3)CC2)c2ccccc21
CCc1ccc(-n2c(=O)c3cccnc3n2CC(=O)NCc2ccc(C)cc2)cc1
O=C(NCc1ccccc1)c1cnc(N2CCCCC2)c2ccccc12
O=C(CSc1nc(-c2ccc(F)cc2)cc(C(F)(F)F)n1)NCCc1ccccc1
COC(=O)c1c(C)nn(-c2ccc(F)cc2)c1-n1cccc1
CCc1cccc(Nc2ncnc3onc(-c4ccc(F)cc4)c23)c1
Cc1ccc(NC(=O)CSc2nc(-c3ccccc3Cl)nc3cc(=O)[nH]n23)c(C)c1
O=C(Nc1ccc2nc(SCC(=O)N3CCc4ccccc43)sc2c1)c1ccccc1F
Cc1cc(C)cc(-n2c(SCC(=O)Nc3ccc4c(c3)OCCO4)nc3c([nH]c4ccccc43)c2=O)c1
Cc1ccc(-n2c(SCC(N)=O)nc3c(oc4ccccc43)c2=O)cc1C
O=C(Cn1c(=O)oc2cc(S(=O)(=O)NCc3ccccc3)ccc21)NCc1ccc(Cl)cc1
Cc1cccc(NS(=O)(=O)c2ccc3c(c2)CCN3C(=O)C2CCC2)c1
COC(=O)C1=C(c2ccccc2)c2ccccc2S(=O)(=O)N1CC(=O)Nc1ccccc1Cl
Cc1ccc(C)c(N2CCN(Cc3csc(C)c3)CC2)c1
Cc1ccc(CN2C(=O)c3ccccc3Sc3ccc(C(=O)OCc4ccco4)cc32)cc1
CCn1cc2nc(SCc3cc(C)ccc3C)n(Cc3ccc(OC)cc3)c(=O)c2n1
Cc1cccc(OCCSc2nc3ccc(NC(=O)COc4ccccc4)cc3s2)c1
